Experimental data from the supplement of paper PMC11417369.
This is one part of the list.

These sequences were tested on PfHDP1 homeodomain (GST-tagged) (assay: gcPBM binding intensity (ln(normalized median fluorescence intensity)); higher = stronger DNA binding).
In short: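 GST-tagged P. falciparum DNA-binding domains produced in E. coli were incubated for 1 h on an Agilent 4 × 180k array of primer-extended double-stranded 36-bp intergenic genomic probes with negative controls. Binding intensity is the highest Masliner-normalised natural-log median intensity across replicate spots of either probe orientation, with bound protein detected by Alexa488 anti-GST antibody at 488 nm.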

Sequence	gcPBM binding intensity (ln)
TCATATTGGCTGTTCTGTACTTATAAGTTTTAAAGA [XGTACX_site5593]	6.79
ATGTAATATTTACAACGTACAAATTATAAACATATT [XGTACX_site603]	6.34
TTTGTTAATATAAAAACACACAAAAATAACATAAAA [CACACA_site2619]	6.86
GACATAGTCATATACTGTACTTTATATTATTGTGTA [XGTACX_site6636]	5.97
TACAGATATAAACACACACACATATATATATATATA [CACACA_site4846]	9.27
TTTTTTTTTTTTTTTTGTACTTATAAAAAATTTTTT [XGTACX_site1249]	6.43
TTTTTTTTCATTGGTTGTACAATATTTATAATTCAC [XGTACX_site7036]	7.23
AATCCCCACTTGTCAAGTACATATATCATGGATGAA [XGTACX_site3486]	6.51
GCCAAAATCTAATTTACACACTTATTAAATAATTAC [CACACA_site6251]	6.56
TATTTATAACAAAGGTTAAATTAAAACTAATCCACA [TGCATGCA_negctrl_site3]	6
TCATAAAAACTAATACGTACTTAAAAATATGAACTT [XGTACX_site2939]	6.23
AAAAAAAAGTTGTATTGTACAAAAAAAAAAAAAAAA [XGTACX_site8334]	6.27
TTATGTAAAAAAAAAAAAAAAAAAAAAAAAAAAAAA [CACACA_negctrl_site984]	5.88
GATAAAGTACTTTATACACACAAATATTTATTTATA [CACACA_site7795]	6.51
TCTTCATATAAGAACACATGCAGATTTTTATTATTG [TGCATGCA_site682]	6.16
AAAAAAAAAAAAAAACGTACACATATTATGTTATTT [XGTACX_site5264]	6.54
CATATAATATAATTATGTACATATATAATAATATAC [XGTACX_site5278]	6.52
AAAATATTTCATATATGTACTTAAAAAAAAAAAAAA [XGTACX_site5399]	6.47
TATTATATATATGTTGACATATTTGTACACTCCACT [TGCATGCA_negctrl_site200]	6.92
GAATATATAAGATACACACACAAATTAAATATAAAA [CACACA_site2781]	6.97
AAAAAATTCATATATACACACACGCACATATATATA [CACACA_site4226]	7.05
AAAAAAAAAAAAAACACACACACACGCATAAATATA [CACACA_site6217]	6.82

Sequence	gcPBM binding intensity (ln)
CACTTTTCTGGAAAAATTCCCACATTTTTTTATTAA [GTGCAC_negctrl_site322]	6.29
GTACAAAAAAAAATAAAATACATATATATATATATA [GTGCAC_negctrl_site364]	9.29
GGGCATATAATATAAAGTACAGGACTATAAAAATAT [XGTACX_site4481]	6.28
TATTATATGTATTGCACACCTTCAACAACTACTTCT [CACACA_site655]	10.6
ATATCTATAATAAACACACACATATACCTATAGGTA [CACACA_site7596]	6.86
ATTGTGCACTTATATGCACACATTTTAGTTTTTTTT [CACACA_site2028]	11.5
TATATATAGAAACACACACACATATATATATATTTT [CACACA_site2540]	6.81
TATATATTATAAAATAGTACACAGAATTTAAATATA [XGTACX_site100]	6.57
TCTTTTAAACAGTACACACACACATATATATATATA [CACACA_site924]	9.27
AATATTTTTTTATAAACACACATATAAATAAATATA [CACACA_site7622]	6.46
TTGTTGATTGTTATTTATCATTAGATGTAAAATATG [CACACA_negctrl_site927]	6.35
GTTATAAAATATGGCACACAAAATGTAAGTAAATGA [CACACA_site1458]	6.79
ATATATTTTGTTATGGTGCGTAAGAAATATATTCTT [GTGCAC_site9825]	7.37
GATCTTTAAATTTATTGTACATAAATGTATATGTTA [XGTACX_site1107]	6.53
TTTATTTATCTGAACACATGCAGACAAATAACATAT [TGCATGCA_site929]	6.47
TATCACATATTATGATGTACAAGGATTCTGACTAAT [XGTACX_site1196]	6.21
CATAAACTTTATAACACACACTTATAAATATAAATA [CACACA_site6646]	6.6
ATTATATATAAACACACACACATGCATGCACATATA [CACACA_site4237]	10.5
TTTTTTTATATTTTTAGTACACATTGGTATATATAT [XGTACX_site4114]	6.77
TATTTTTTTAAAAATACACACATAAAATCATGAAAA [CACACA_site1085]	6.63
ATATATATATGTCAAAGTACTAAAAATATATACATA [XGTACX_site3397]	8.32
TTATGAAATAGAATAACACACATATTTATATATGTG [CACACA_site2050]	6.2

Sequence	gcPBM binding intensity (ln)
CATAGAATAATTTATTGTACGTGCATGCTATTTTTT [XGTACX_site8984]	8.38
AAAATAAATTTTTATGTTATATATACAATTTCTCTA [CACACA_negctrl_site1760]	6.22
AATGCTATCTTCTTATTTTTCATACACAACATGAAC [CACACA_negctrl_site1809]	7.04
TATAATATTTATATAACACACATATATATTTATTTA [CACACA_site280]	6.34
TATACATTTTTATAAAGTACACAAAAATAAATATAA [XGTACX_site1647]	6.42
AAACAGAATACATATACACACATACAAAAAAGTGCA [CACACA_site8235]	6.69
ATTAAATATATGATGTGTACATATTCGTGTATGTTT [XGTACX_site2141]	6.51
TTTTAATAATTTATAAAAAAAAAAAAAAAATAAATA [TGCATGCA_negctrl_site419]	5.98
TTTAATGAAAGAAACACATACGTATCAAAATATATG [TGCATGCA_negctrl_site510]	6.68
TACGTTGTATATTTTTGTACATATTGAATTACAAAA [XGTACX_site5906]	6.44
AATAAAATATAATAATTAATATATATATATATATAA [GTGCAC_negctrl_site457]	6.61
TTATGTTGTAAATACACACATACATATACATACACA [CACACA_site733]	6.96
TATGTGAAATAAGGATGTACAATTTTGATTTCCCCA [XGTACX_site8389]	6.82
GTGTACAAAATATGGTAATAAAGTAGTTACATGAAT [CACACA_negctrl_site1775]	6.81
CTAAATTGTTAATAGAGTACATTTGTATAATATAAG [XGTACX_site594]	6.44
AAAGCAAATAATAAGTGTACGGGTCAATATATGCGT [XGTACX_site1519]	6.81
CATATAAACAATAACACACACCTAGGTACATGGAAA [CACACA_site4615]	6.69
CTTTTTAATTTATCGACACACGCATGAATAGAAATT [CACACA_site9112]	6.32
TTCATATGGAATAAAAGTACGTATTAAAACAATTTT [XGTACX_site8742]	6.54
GAACAATATATTTGCACACAAAAAATATATATTTAT [CACACA_site3317]	10.7
GAATACTCATTTCTTTGTACATATATATGTGTATTT [XGTACX_site6411]	6.71
TAGATTTAAAAAAAAAAAAAATTTTTTTTTTTTTTT [TGCATGCA_negctrl_site593]	5.94

Sequence	gcPBM binding intensity (ln)
ATACAAGTATTAATTACACACTCAAAAAGAAAAAAC [CACACA_site5287]	6.75
GGATAAAAAATATGTACACACATATAGATATCTATA [CACACA_site2693]	6.45
GTTTACATCATTCTGGTGCAAAAAAAAAAAAAAATA	10.5
CATAAGAGGAACTTTTGTACTTATATGTATATAGTA [XGTACX_site5836]	5.9
TATATCGTTATATAAACACACAATATGTTTTTTATA [CACACA_site7730]	6.33
CTTTTATGAAACAGTGCACACATAAAAATATATACA [CACACA_site8981]	9.92
GCCACACTTTTCTGCACACATAAAAAATATATAAAT [CACACA_site578]	8.9
AAAAAAAAAAAAAAAACACACATTTGAAAGAAAGAA [CACACA_site3339]	6.72
TACACCCATGGACACACACACACGCATAAAAAAAAA [CACACA_site4933]	6.86
ATTTTTATTTTCTTTACACACCACATAATTTTTTTT [CACACA_site6092]	7.2
ATATATAATATATATGCATGTGACATTAATAATATA [TGCATGCA_site880]	6.6
ATATGAAAGGTGTACACACGCACACCCAAAAAAATA [CACACA_site2911]	6.86
TAATTTAAAAATATAAATGTTTCACTTATATATTTT [TGCATGCA_negctrl_site399]	5.97
AACTGAGAAACCGAAGTGCAATATGTATATATACAT	9.08
CCACACTTAAAATACACACACACCAAAAAAAAAAAA [CACACA_site2709]	6.83
ATTTATTGACTATTTACACACATATTTATTAGAATA [CACACA_site6863]	6.74
GGGAGGATAGTTCACAGTACCCAGTAACTCTACGGA [XGTACX_site2558]	6.32
ATGATACATAAAGAATATAAAACATGAAATATAATA [CACACA_negctrl_site1461]	6.49
TTTTTGTTTTTTTTTTGTACATATATATAAAAAATA [XGTACX_site1214]	6.45
TTTTTTTTAATATTTTACATTGTCTGTTAACAAATA [CACACA_negctrl_site599]	6.45
AACACTTTAATTTATGCACACATATGGAACAACAGC [CACACA_site8241]	10.2
AGATATATATTTTATTGTACACATTAAAGTATAAAA [XGTACX_site7194]	6.3
